Reference: PubChem BioAssay AID1508642 (National Center for Advancing Translational Sciences (NCATS), 2021)
Among all 43,000 compounds or so, about 200 (0.47%) were called active. Roughly 12% stayed inconclusive and do not appear here. Calls come from the whole dose curve; as a rule, active = well fitted cell-killing curve with a large enough effect; inconclusive = small, poorly fitted or top-dose-only effect, or effect the other way; inactive = flat fitted curve, though single readings scatter. The list shows a part of the results.

Experiment: Cell viability qHTS assay in S16 Pmp22-F2sN cells; note: nearly all actives have a fitted effect of over 65% in size
Details: S16 Pmp22-F2sN Schwann cells (luciferase reporters placed in the Pmp22 gene) viability, CellTiter-Glo, 24 h; series mostly up to 57.5 µM; activity change, negative = cytotoxicity: at the top concentration
Procedure, shortened: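 Rat S16 Schwann reporter line, 24 h treatment with library compounds delivered at 23 nL per well. Cell viability by CellTiter-Glo luminescence.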
% is set by controls: 0 for no effect and ±100 for the full control effect.

SMILES	activity change, negative = cytotoxicity
Cc1ccc(C)c(N2CCN(S(=O)(=O)c3ccc(C4CCCCC4)cc3)CC2)c1	inactive: 0.511%
CC(C)(C)OC(=O)N1CCC(c2c(C(=O)NCc3ccccn3)cnn2-c2ccccc2Cl)CC1	inactive: 11.4%
CN(C)C1(CNC(=O)COc2cccc(Cl)c2)CCCCC1	inactive: 16.1%
Cn1cc(-c2cc3n(n2)CCC(=O)N3CC(=O)NCc2ccccc2)c2ccccc21	inactive: 15.3%
CCOC(=O)c1cc(OC(=O)c2cc(Cl)ccc2OC)n(-c2ccccc2)n1	inactive: -0.641%
CCc1ccc(S(=O)(=O)c2nnn3c2nc(NCCC(C)C)c2cc(Cl)ccc23)cc1	inactive: -21.7%
CCc1ccccc1NC(=O)CSc1nccn1C	inactive: -0.644%
COc1ccccc1Nc1ncnc2c1nc1n2CCCCC1	inactive: 6.47%
CCOc1ccc(NS(=O)(=O)c2ccc3[nH]cc(C(=O)NCCc4ccccc4)c(=O)c3c2)cc1	inactive: -7.43%
Cn1c(SCC(=O)Nc2ccccc2F)nc2c([nH]c3ccccc32)c1=O	inactive: 2.46%
CC(=O)c1ccc(OC(=O)c2c(-c3ccccc3Cl)noc2C)cc1	inactive: 19%
COc1ccc2c(c1)c(CC(=O)Nc1cc(C)c(OC)c(C)c1)c(C)n2C(=O)c1ccc(Cl)cc1	inactive: -1.06%
O=C(COc1ccc(Cl)cc1Cl)Nc1ccc(C(=O)OC2CCCCC2)cc1	inactive: 1.2%
Cn1nc(C(=O)Nc2cccc(C(F)(F)F)c2)c2c1-c1ccccc1S(=O)(=O)C2	inactive: -0.832%
CCCN(CCC)S(=O)(=O)c1ccc(C(=O)N2CCn3c4c(c5cc(C)ccc53)CCCC42)cc1 (stereo unspecified)	inactive: -15.2%
Cc1ccc(S(=O)(=O)c2cn(CC(=O)Nc3ccccc3)c3cc4c(cc3c2=O)OCO4)cc1	inactive: -8.36%
Cc1ccc(-c2nc(CS(=O)CC(=O)O)c(C)o2)cc1 (stereo unspecified)	inactive: 12.3%
CC(=O)c1cc(-c2ccccc2)n(CC(=O)Nc2ccc(C)cc2C)c1C	inactive: -22.2%
Cc1cccc(N2CCN(C(=O)c3ccc4c(c3)CCN4S(=O)(=O)c3ccccc3)CC2)c1C	inactive: 0.549%
CCc1ccc(Nc2nc3ccccc3c3nnc(C)n23)cc1	inactive: -9.26%
CCOc1ccccc1NC(=O)NC(CC)c1c(-n2cccc2)sc2c1CCN(C)C2 (stereo unspecified)	inactive: 14.7%
O=C(Cn1c(=O)n(-c2ccccc2)c(=O)c2c3c(sc21)CCCC3)Nc1ccc(F)cc1	inactive: 14.4%
COc1ccccc1N1CCN(C(=O)c2cc3c(=O)n(Cc4cccnc4)ccc3nc2C)CC1	inactive: -1.86%
Cc1ccccc1OCC(=O)Nc1nnc(S(=O)(=O)N(C)c2ccccc2)s1	inactive: -7.26%

SMILES	activity change, negative = cytotoxicity
CCC1Oc2ccccc2N(CC(=O)NCc2ccc(C)cc2)C1=O (stereo unspecified)	inactive: 5.15%
CC1=C(C(=O)OC2CCCC2)C(c2cccc(Cl)c2Cl)CC(=O)N1 (stereo unspecified)	inactive: 22.2%
CCOc1ccc(-n2ccnc2SCC(=O)Nc2ccc(OC)cc2OC)cc1	inactive: -18.7%
CC(=O)c1ccc(NC(=O)COc2ccccc2-c2nc(C)no2)cc1	inactive: 8.43%
CCn1c2c(c(=O)n3ncc(C(=O)Nc4ccc(F)c(Cl)c4)c13)CN(Cc1ccc(OC)cc1)CC2	inactive: 1.66%
CC(C)CC(=O)N(Cc1ccccc1)S(=O)(=O)c1ccc2c(c1)oc(=O)n2C	inactive: -0.653%
CCOc1ccc(C(=O)OCc2cc(=O)n3nc(C(C)C)sc3n2)cc1	inactive: 13%
CCN1CCN(c2ncc3c(n2)CCN(Cc2ccc(C)s2)C3)CC1	inactive: 12%
Cc1cccc(CCNC(=O)c2nc(-c3ccc(Cl)cc3)n3c2CCCCC3)c1	inactive: -17%
COc1ccc(Br)cc1CNC(=O)c1cc2c(=O)n(C)c3ccccc3c2s1	inactive: 0.0947%
N#Cc1ccc(NC(=O)COCc2cc(-c3ccc(F)cc3)on2)cc1	inactive: 8.29%
COC(=O)c1cc2oc(C)cc2n1Cc1ccc(Cl)cc1	inactive: 4.09%
COc1cccc(NC(=O)CN2C(=O)C3(SCC(=O)N3c3cc(C)cc(C)c3)c3ccccc32)c1 (stereo unspecified)	inactive: -1.39%
Cc1ccc(CN2C(=O)N(c3ccc(C)c(Cl)c3)S(=O)(=O)c3ccccc32)cc1	inactive: -4.8%
Cc1ccc(NC(=O)C2CCN(S(=O)(=O)c3c(C)noc3C)CC2)cc1C	inactive: 18.5%
CCN(CC)C(=O)C1CCN(C(=O)c2cnn(-c3ccccc3)c2-n2cccc2)CC1	inactive: -0.339%
O=C(CSc1nccn1C1CCCC1)Nc1ccccc1	inactive: -3.03%
CCOC(=O)CSc1nc2ccccc2n2c(C)nnc12	inactive: 3.22%
CCOc1ccc(CNC(=O)c2cnc(SC)nc2C)cc1	inactive: -18.2%
COC(=O)c1c(-c2cccs2)csc1NC(=O)COc1ccc(C(C)C)cc1	inactive: -0.508%
CCOC(=O)C1CCN(C(=O)c2nn(-c3ccc(C)cc3)c(=O)n(C)c2=O)CC1	inactive: -2.36%
O=C(Nc1ccc(Cl)cc1C(F)(F)F)c1cc(S(=O)(=O)NCc2ccccc2)ccc1F	inactive: -8.75%
CCc1ccc(CNC(=O)c2ccc(CS(=O)(=O)Cc3ccccc3C)o2)cc1	inactive: -3.02%
Cc1cn2c(=O)c(S(=O)(=O)NCCc3ccc(Cl)cc3)c(C)nc2s1	inactive: -0.26%

SMILES	activity change, negative = cytotoxicity
CC(=O)N1CCc2c(sc3c2c(=O)n(-c2ccccc2)c(=O)n3CC(=O)c2ccc(F)cc2)C1	inactive: -5.18%
COc1cc(C(=O)Nc2nnc(CC(C)(C)C)s2)cc(OC)c1OC	inactive: -0.217%
CCc1ccc(NC(=O)C2CCCN2S(=O)(=O)c2cccc3nsnc23)cc1 (stereo unspecified)	inactive: -18.9%
COC(=O)c1ccc(OCC2c3cc(OC)c(OC)cc3CCN2C(=O)Cc2ccc(OC)c(OC)c2)cc1 (stereo unspecified)	inactive: -1.24%
CC(C)c1nn2c(=O)cc(COC(=O)c3ccc4c(c3)OCO4)nc2s1	inactive: 22.5%
CCOC(=O)C1CCC(CN(Cc2ccc(OC)cc2)S(=O)(=O)c2ccc(F)c(C(=O)Nc3cc(Cl)ccc3OC)c2)CC1 (stereo unspecified)	inactive: -5.51%
Cn1cc(-c2cc3n(n2)CCC(=O)N3CCCC(=O)NCc2ccccc2)c2ccccc21	inactive: -15.7%
CCN(CC)CCNC(=O)Cn1cnc2sc(C)c(S(=O)(=O)N3CCC(C)CC3)c2c1=O	inactive: 6.82%
CCc1ccc2occ(CC(=O)NCc3ccccc3)c2c1	inactive: -21.4%
CCOc1ccccc1C(=O)Nc1cc2c(cc1C)n(C)c(=O)c(=O)n2C	inactive: 6.77%
COc1ccc(-c2nc3sc(CCNC(=O)c4ccc(C(C)(C)C)cc4)c(C)n3n2)cc1	inactive: 12.8%
CCCCNc1nc2c(-c3cccc(Br)c3)nnn2c2ccccc12	inactive: 7.55%
Cc1cn2c(=O)cc(COC(=O)c3ccc(NC(=O)c4ccc(C(C)(C)C)cc4)cc3)nc2s1	inactive: -3.33%
COc1ccc(C2=Nc3ccccc3N(CC(=O)Nc3cccc(C(C)=O)c3)C(=O)C2)cc1	inactive: -18.4%
CCOC(=O)c1ccc(NC(=O)C(CC)Sc2nncn3c2cc2oc(C)cc23)cc1 (stereo unspecified)	inactive: 0.464%
O=C1Nc2c(c(=O)[nH]c(=O)n2-c2ccc(F)cc2)C1(NS(=O)(=O)c1ccc(Cl)cc1)C(F)(F)F (stereo unspecified)	inactive: -0.211%
COc1cccc2c1cc1c(=O)n(CC(=O)NCCCN3CCN(C)CC3)nc(C)n12	inactive: 18.3%
CCC1=C(c2ccc(C)cc2)S(=O)(=O)N=C1N1CCC(C(=O)NCCc2cccc(OC)c2)CC1	inactive: 0.138%
COc1ccc(OCCCn2c(C)nc3cc(C)c(C)cc32)cc1	inactive: -7.88%
Cc1ccc(NC(=O)N2CCC(CN3CCCCC3)CC2)c(Cl)c1	inactive: 6.39%
CCn1cc(/C=C(\NC(=O)c2ccc(OC)c(OC)c2)C(=O)NCCCn2ccnc2)c2ccccc21	inactive: 7.45%
CCOC(=O)c1cc(-c2ccc(OC)cc2)n(CCC(=O)NCCc2ccc(OCC)c(OCC)c2)c1C	inactive: 0.535%
Cc1nc2sccn2c(=O)c1S(=O)(=O)Nc1cccc(Cl)c1C	inactive: -20.1%
CN(C)c1ccc(CNC(=O)C2CCN(C(=O)c3ccc(-n4ccc5ccccc54)s3)CC2)cc1	inactive: -5.97%

SMILES	activity change, negative = cytotoxicity
COc1cc([N+](=O)[O-])ccc1NC(=O)N1CCC2(CC1)Nc1cc(F)ccc1-n1cccc12	inactive: -16.3%
CCOC(=O)c1c(-c2ccc(OC)cc2)oc2ccc(OCc3ccc(F)cc3F)cc12	inactive: -4.03%
CC(C)(C)OC(=O)N1CCC(c2c(C(=O)N3CCN(c4ncccn4)CC3)cnn2-c2ccc(F)cc2)CC1	inactive: -6.2%
COc1ccc(NC(=O)c2ccco2)cc1NC(=O)c1ccc(OC(C)C)cc1	inactive: -3.19%
Cc1cc(C)cc(OC(C)C(=O)Nc2nc3c(s2)CCCC3)c1 (stereo unspecified)	inactive: -15.5%
CCOc1ccc(Nc2ncnc3onc(-c4ccc(Cl)cc4)c23)cc1	inactive: -1.24%
COc1ccc(CCNC(=O)Cn2nc(-c3ccc(Cl)cc3)ccc2=O)cc1OC	inactive: -8.41%
COc1cn(CC(=O)Nc2cccc(C)c2)c(CN2CCCCC2)cc1=O	inactive: 0.312%
COc1ccc(Oc2ncnc3c2oc2ccccc23)cc1	inactive: -2.17%
CCOC(=O)c1ccc(NC(=O)C2CCCN(c3cnccn3)C2)cc1 (stereo unspecified)	inactive: 7.24%
CC(=O)N1c2ccccc2CC1C(=O)N1CCN(c2ccccc2F)CC1 (stereo unspecified)	inactive: -27.3%
CCOC(=O)C1=C(CNCc2ccc(Cl)cc2)NC(=O)NC1c1ccccc1 (stereo unspecified)	inactive: -0.866%
COc1cccc(/C=C(\C#N)c2nc3ccccc3c(=O)[nH]2)c1OC	inactive: -2.26%
COc1cc(NC(=O)Cn2cc(S(=O)(=O)N3CCC(C)CC3)c3ccccc3c2=O)cc(OC)c1OC	inactive: -17%
CCCC(C(=O)Nc1cc(C)c(Cl)cc1OC)N1Cc2ccccc2C1=O (stereo unspecified)	inactive: -21.2%
COc1cccc(N2CCN(C(=O)Cn3ncc4c3-c3ccccc3OC4)CC2)c1	inactive: 23.7%
CCOc1ccc(Nc2c(S(=O)(=O)c3ccccc3)cnc3ccc(CC)cc23)cc1	inactive: -12.9%
Cc1ccc(C(=O)c2cn(CC(=O)Nc3ccc4c(c3)OCCO4)c3nc(C)ccc3c2=O)cc1	inactive: -11.4%
CC(C)CCNC(=O)c1ccc(NC(=O)N2CCCCc3ccccc32)cc1	inactive: 4.7%
O=C(CSc1nc2ccccc2n1Cc1ccccc1)NCc1ccccc1	inactive: -20.2%
CC(C)CC(NC(=O)C1CCC(C)CC1)C(=O)OCC(=O)c1ccc(Cl)cc1 (stereo unspecified)	inactive: 5.54%
CC(NC(=O)C1CCN(C(=O)N2CCOc3ccccc32)CC1)c1ccccc1 (stereo unspecified)	inactive: 6.49%
Cc1cccc(NC(=O)CCS(=O)(=O)c2cc(Br)cc3c2N(C(=O)C2CC2)CC3)c1C	inactive: -1.42%
CC1=C(C(=O)Nc2cccnc2)C(c2ccc(F)cc2)n2nc(SCc3ccccc3)nc2N1 (stereo unspecified)	inactive: 18.7%
